Test results from PubChem BioAssay AID1345082 (National Center for Advancing Translational Sciences (NCATS), 2018).
Among all 94,000 compounds or so, about 4,000 (4.3%) were called active. This list was built around the results that the source calls inconclusive (neither active nor inactive); the mix of calls is not that of the screen. The call rests on the fitted dose curve; in most records, active means well fitted inhibition curve with a large enough effect; inconclusive means small, poorly fitted or top-dose-only effect; inactive means no such curve, though single readings can be large or run the other way. Potencies beside an inconclusive call are fits to weak or partial responses and may not hold up.

Experiment: Cytotoxic Profiling in NIH 3T3 Cell Line of Diverse Libraries Using Quantitative High-Throughput Screening; further: nearly all actives have a fitted effect of over 55% in size
Details: NIH 3T3 viability, CellTiter-Glo ATP luminescence, 48-72 h; series mostly up to 96.7 µM
Method in brief: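 Cytotoxicity was measured by CellTiter-Glo ATP luminescence after 48 or 72 h compound exposure at 37 °C. Mouse NIH 3T3 fibroblasts were seeded at 400 cells/well and dosed by 23 nL pin transfer.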
Potency means the concentration at half of the fitted maximal effect; tags describe the fitted curve by direction and shape.

Row | Structure (SMILES) | Potency
1 | Cc1cc(C)cc(C(=O)N2CCCN(C)c3ccccc32)c1 | inconclusive: 50.1 µM [inhibitor, partial curve, poor fit]
2 | Cc1cccc(C(C(=O)N2CCC(CCn3ccnc3C)CC2)N(C)C)c1 (stereo not drawn) | inconclusive: 56.2 µM [inhibitor, partial curve, poor fit]
3 | COCCN1CCCN(C(=O)c2cccc(Cl)c2)c2ccccc21 | inconclusive: 44.7 µM [inhibitor, partial curve, poor fit]
4 | CN1C(=O)C2(CCN(C(=O)c3ccn(C(C)(C)C)c3)CC2)c2ccccc21 | inactive
5 | CCOC(=O)C(C)N1CCOc2c(O)cc(-c3cccc(Cl)c3)cc2C1 (stereo not drawn) | inconclusive: 50.1 µM [inhibitor, partial curve, poor fit]
6 | O=C(Nc1ccc(-c2cccc(F)c2)cc1)C1CCCN1Cc1ccc(CO)o1 (stereo not drawn) | inconclusive: 50.1 µM [inhibitor, partial curve, poor fit]
7 | CCn1ccc2ccc(CN3CCCC(O)(CN4CCCC4)C3)cc21 (stereo not drawn) | inconclusive: 50.1 µM [inhibitor, partial curve, poor fit]
8 | CN(CCc1noc(C2CN(Cc3cccc(C#N)c3)C2)n1)C(=O)C1CCOCC1 | inactive
9 | O=C(c1ccno1)N1C[C@@H]2OCC(=O)N(Cc3ccc(F)cc3)[C@@H]2C1 | inactive
10 | CCn1cc(-c2ccccc2)cc1C(=O)NCc1ccccn1 | inconclusive: 50.1 µM [inhibitor, partial curve, poor fit]
11 | O=C1C(OCC2CC2)C2(CCCCC2)N1C1CCN(Cc2cccnc2)CC1 (stereo not drawn) | inactive
12 | O=C(c1ccc(C2CCCN2)s1)N1CCc2nc[nH]c2C1 (stereo not drawn) | inactive
13 | Oc1ccccc1CNC[C@H]1O[C@H](Cc2cc(CN3CCCCC3)on2)CC[C@@H]1O | inactive
14 | O=C1COCCN1c1cc(-c2cnc3[nH]ccc3c2)cn2cncc12 | inactive
15 | CC1=C(C(=O)OC(C)C)C(c2ccccc2Cl)CC(=O)N1Cc1cc(F)cc(F)c1 (stereo not drawn) | inconclusive: 39.8 µM [inhibitor, partial curve]
16 | O=C(Nc1nccs1)C1CC(=O)N(c2n[nH]c3cccc(F)c23)C1 (stereo not drawn) | inconclusive: 70.8 µM [inhibitor, single point]
17 | CCNC(=O)OC1CN(C(=O)c2ccc(C(F)(F)F)cc2)CCC(=O)N(C)c2ccccc21 (stereo not drawn) | inactive
18 | O=C1NCCCCCCN(Cc2ccncc2)[C@@H]2CN(S(=O)(=O)c3ccc4c(c3)CCC4)CC[C@H]12 | inconclusive: 44.7 µM [inhibitor, partial curve, poor fit]
19 | COc1ccccc1-c1ccc(CN2CCC(NC(=O)c3ccc(C(F)(F)F)cc3)C2)cc1 (stereo not drawn) | inconclusive: 28.2 µM [inhibitor, partial curve, poor fit]
20 | CCc1ccc(NC(=O)Cn2c(C)ccc(NS(=O)(=O)c3ccc(C)cc3)c2=O)cc1 | inactive
21 | Cc1nn(-c2ccccc2)c2c1C(C(C)C)N(C1CCN(C(=O)Cc3cccc(Cl)c3)CC1)C2=O (stereo not drawn) | inactive

Row | Structure (SMILES) | Potency
22 | O=C([C@@H]1C[C@H](Oc2cccnc2)CN1S(=O)(=O)c1ccc2c(c1)CCC2)N1CCCC1 | inconclusive: 70.8 µM [inhibitor, single point]
23 | COc1ccc2[nH]c3c(c2c1)CCN(C)C31CCN(C(=O)c2ccc(C)nc2)CC1 | inconclusive: 70.8 µM [inhibitor, single point]
24 | COc1cccc(CN2CCC(Oc3ccc(-c4noc(C5CC5)n4)cc3)C2)c1 (stereo not drawn) | inconclusive: 50.1 µM [inhibitor, partial curve, poor fit]
25 | CCN(CC)C(=O)CC[C@@H]1CNC(=O)[C@@H]2C[C@H](NCc3ccc(N(C)C)cc3)CN12 | inactive
26 | CCCc1noc(-c2cn(C3CCN(C(=O)c4ccc(OC)cc4OC)CC3)nn2)n1 | inconclusive: 31.6 µM [inhibitor, partial curve, poor fit]
27 | CN1Cc2c(cc(N3CCOCC3)nc2-c2cnn(C)c2)C1=O | active: 25.1 µM
28 | COc1ccc(-c2nc(C(C)C)nc3c2CCN(C(=O)c2ccc(F)cc2)CC3)cc1 | inconclusive: 44.7 µM [inhibitor, partial curve, poor fit]
29 | CCc1nc2c(c(-c3ccc(OC)cc3)n1)CN([S+](=O)([O-])c1cccc(OC)c1)CC2 | active: 28.2 µM
30 | CC1(C(=O)Nc2ccc(F)c(Cl)c2)COCc2cnc(Nc3ccccc3)nc21 (stereo not drawn) | inconclusive: 50.1 µM [inhibitor, partial curve, poor fit]
31 | O[C@@H]1C[C@@H](c2nc(-c3ccc(OC(F)(F)F)cc3)no2)N(C2CCOCC2)C1 | inconclusive: 112 µM [inhibitor, partial curve, poor fit]
32 | COc1ccc(NC(=O)c2cccc3c2CCN3C(=O)c2ccc(F)cc2)cc1OC | inactive
33 | CC(C)c1ccc(NC(=O)C2(Cc3cccnc3)CCCCC(=O)N2)cc1 (stereo not drawn) | inconclusive: 50.1 µM [inhibitor, partial curve, poor fit]
34 | COc1ccccc1C(=O)N1CCCn2nc(C)c(-c3ccccc3N3CCCC3)c21 | inconclusive: 112 µM [inhibitor, single point]
35 | C[C@@H]1CN(Cc2cc(C(N)=O)oc2C(C)(C)C)CC[C@@]1(O)C1CCC1 | inactive
36 | O=C(c1cccc(F)c1)N1CCN(c2cc(-c3cccs3)[nH]n2)CC1 | inconclusive: 35.5 µM [inhibitor, partial curve, poor fit]
37 | Cc1nc2c(c(-c3ccc(Cl)cc3)n1)CCN([S+](=O)([O-])c1c(C)noc1C)CC2 | inactive
38 | CC(C)NC(=O)N1CCNc2cnc(Nc3cccc(F)c3)nc2C1 | inconclusive: 79.4 µM [inhibitor, partial curve, poor fit]
39 | CCn1cc(C(=O)N2C[C@@H](COc3ccccc3)[C@H](C(N)=O)C2)cn1 | inactive
40 | Cc1cc(C)c(CN2CCC3(CCCN(C)C3=O)C2)c(-n2cccn2)c1 (stereo not drawn) | inconclusive: 89.1 µM [inhibitor, single point]
41 | Cn1ccc2c(C(=O)NCCC(N)=O)nc(-c3cccc(CO)c3)cc21 | inconclusive: 100 µM [inhibitor, partial curve, poor fit]
42 | COc1ccc(NC(=O)c2ccc3oc(-c4cccnc4OC)nc3c2)cc1 | inactive

Row | Structure (SMILES) | Potency
43 | Cc1cc(C)n(Cc2ccc(C(=O)NCC3Cn4cccc4CN3Cc3ccccc3)o2)n1 (stereo not drawn) | inconclusive: 79.4 µM [inhibitor, partial curve, poor fit]
44 | O=C1NC(=NC2CCCC2)C2(CCCN(CC3CC3)C2)N1c1cc(F)cc(F)c1 (stereo not drawn) | inconclusive: 70.8 µM [inhibitor, single point]
45 | O=C(Nc1ccc2c(c1)CN(Cc1ccccc1F)C(=O)CO2)c1ccc(F)cc1 | inconclusive: 44.7 µM [inhibitor, partial curve, poor fit]
46 | CCOC(=O)C1(Cc2ccccc2F)CCCN(C(=O)c2c(C)nc3sccn23)C1 (stereo not drawn) | inactive
47 | COCCN1C[C@H]2CN(Cc3cccc(OC)c3)CCN2C1=O | inactive
48 | FC(F)(F)c1ccc(N2C3CCC2CN(CC2CCCC2)C3)cc1 | inconclusive: 70.8 µM [inhibitor, partial curve, poor fit]
49 | COc1ccc(C2Cn3nnc(-c4noc(-c5sccc5C)n4)c3CO2)cc1 (stereo not drawn) | inactive
50 | Cc1cc(C)c([S+](=O)([O-])c2nnn3c2nc(NCc2ccncc2)c2ccccc23)c(C)c1 | inconclusive: 44.7 µM [inhibitor, partial curve, poor fit]
51 | COc1ccc(OCC(O)CN2CCC(=O)N(CC3CC3)Cc3cc4c(cc32)OCO4)cc1 (stereo not drawn) | inconclusive: 50.1 µM [inhibitor, partial curve, poor fit]
52 | CCOC(=O)[C@@H]1CN(C(=O)OCc2ccccc2)[C@H]2c3ccccc3O[C@@H]12 | inconclusive: 44.7 µM [inhibitor, partial curve, poor fit]
53 | COc1ccc(-c2cc(N3CCC(NC(=O)c4ccccc4Cl)C3)n[nH]2)cc1 (stereo not drawn) | inconclusive: 44.7 µM [inhibitor, partial curve, poor fit]
54 | COCCn1nnnc1C1CC2(CCOCC2)C(=O)N1Cc1ccc(C)c(C)c1 (stereo not drawn) | inactive
55 | CN(Cc1cccnc1)c1ccc2ncc(Nc3ccc4c(c3)OCO4)n2n1 | inconclusive: 39.8 µM [inhibitor, partial curve, poor fit]
56 | Cc1cnc(CCNC(=O)CC(C)C)n1Cc1ccc(F)cc1 | inactive
57 | CC1(C)[C@H](Cc2cc(CN3CCN(c4ccccc4)CC3)on2)C[C@@H]1NC(=O)Nc1ccc(F)cc1 | inconclusive: 28.2 µM [inhibitor, partial curve, poor fit]
58 | Cc1ccncc1-c1c(C)nn2c1N(C(=O)Cc1ccc(Cl)cc1)CCC2 | inconclusive: 44.7 µM [inhibitor, full curve, poor fit]
59 | COc1ccc(Cc2ncc3c(n2)CN(C(=O)c2ccc(OC)c(O)c2)C3)cc1 | inconclusive: 28.2 µM [inhibitor, partial curve]
60 | COc1ccc(C(CC(=O)N(C)Cc2cc(C3CC3)n[nH]2)c2ccccc2)cc1 (stereo not drawn) | inconclusive: 50.1 µM [inhibitor, partial curve, poor fit]
61 | Cc1ccc(Cn2c(C3CCN(C(=O)c4ccc(C)c(C)c4)CC3)n[nH]c2=O)cc1 | inconclusive: 50.1 µM [inhibitor, partial curve, poor fit]
62 | CN1C[C@@H](NC(=O)c2ccc(C#N)cc2)C[C@H]1c1nc(-c2ccc(OC(F)(F)F)cc2)no1 | active: 39.8 µM
63 | COc1cccc(CN2CCC3(CC2)C(OC)CN3c2cccc(F)c2)n1 (stereo not drawn) | inconclusive: 44.7 µM [inhibitor, partial curve, poor fit]
